The values below come from PubChem BioAssay AID1346428 (National Center for Advancing Translational Sciences (NCATS), 2018).

Among all 48,000 compounds or so, about 1,200 (2.5%) were called active. Roughly 2% stayed inconclusive and do not appear here.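 How the source made its calls: active means activation of at least 60% and not above a set upper limit (about 1 call in 100 departs from these limits); inconclusive means activation of 40% to 60%, or above that upper limit; inactive means activation under 40%.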 This is one part of the list.

Chain of UniProt O75388 (O75388 whole entry, looked up): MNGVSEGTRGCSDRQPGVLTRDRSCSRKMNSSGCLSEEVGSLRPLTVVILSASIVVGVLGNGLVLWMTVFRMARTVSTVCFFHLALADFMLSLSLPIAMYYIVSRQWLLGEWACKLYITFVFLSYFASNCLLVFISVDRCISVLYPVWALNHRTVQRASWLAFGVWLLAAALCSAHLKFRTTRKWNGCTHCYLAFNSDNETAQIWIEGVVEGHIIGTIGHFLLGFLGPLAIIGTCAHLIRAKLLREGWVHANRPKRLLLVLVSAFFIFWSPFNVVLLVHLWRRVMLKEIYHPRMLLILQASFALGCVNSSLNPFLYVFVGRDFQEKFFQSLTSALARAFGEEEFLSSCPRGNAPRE

The assay concerns the target Probable G-protein coupled receptor 32 (Homo sapiens) (UniProt O75388). The assay is described as follows: qHTS for Agonists of Human Resolvin D1 Receptor DRV1. Further: 0% is about no effect. As to conditions: CHO-K1 GPR32 beta-arrestin PathHunter luminescence, 90 min; at 76.9 µM; active compounds read high; zero percent set by DMSO-only wells. In a few lines:
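Step 1: seed CHO-K1 GPR32 beta-arrestin cells, 2,500/well, overnight at 37 °C. Step 2: add compounds, 90 min at 37 °C. Step 3: detection reagent, 1 h ambient, then luminescence.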
On to `CCCCCOc1ccccc1CN1C(=O)C(=O)c2cc(C)ccc21`, for which the activation is inactive: -87.6%.

As for `COc1ccc(NC(=O)c2c(NCc3ccc(OC)c(OC)c3OC)sc3c2CCC3)c(OC)c1`, the activation is inactive: -17%.

In the case of `Cc1ccc(/C=C/C(=O)N2CCC(c3nc4ccccc4o3)CC2)cc1`, the activation is inactive: -7.42%.

Regarding `Cc1ccc(N(C)S(=O)(=O)c2ccc(-c3coc(C)n3)cc2)cc1`, the activation is inactive: 16.9%.

Consider `COc1ccccc1N1CCN(CCCNC(=O)c2nnc(Cc3ccc(F)cc3Cl)o2)CC1`, for which the activation was inactive: -7.47%.

Regarding `Cc1ccc(NC(=O)CN2C(=O)COc3ccc(S(=O)(=O)N4CCOCC4)cc32)cc1N(C)C`, the activation was inactive: -21.7%.

For `Cc1cccc(-c2noc(-c3ccc(NCc4ccccc4)c([N+](=O)[O-])c3)n2)c1`, the activation was inactive: 9.86%.

`CC1=C(c2ccc(C)c(C)c2)S(=O)(=O)N=C1N1CCC(C(=O)NCc2ccccc2C)CC1`: the activation was inactive: 45.1%.

For `Cc1cc(C)c2oc(-c3ccc(NC(=O)COc4ccccc4C)cc3)nc2c1`, the activation was inactive: -22.6%.

Turning to `Fc1ccc(CSc2nncn3c2cc2occc23)c(Cl)c1`, the activation is inactive: -28.4%.

On to `CCOc1ccc(CCNC(=O)c2cc3sccc3n2CC)cc1OCC`, for which the activation is inactive: 4.99%.

Consider `CC1=C(C(N)=O)C(c2cccc(Br)c2)n2nc(SCc3ccccc3Cl)nc2N1` (stereo not drawn), for which the activation was inactive: -6.85%.

With `CCc1nc2ccc(C(=O)N3CCN(c4cc(C)ccc4C)CC3)cc2nc1CC`, the activation is inactive: -36.6%.

For the compound `COc1cc(C2C(C(=O)Nc3ccc(Cl)cc3)=C(C)Nc3nc(SC)nn32)cc(OC)c1OC` (stereo not drawn), the activation is inactive: 4.35%.

With `Cc1nn(CC(=O)NCCc2ccccc2)c(=O)c2nn(-c3ccccc3)c(C)c12`, the activation was inactive: -15.9%.

`Cc1ccc(Cn2c(CO)cnc2SCC(=O)NCc2ccccc2Cl)cc1`: the activation was inactive: 2.67%.

For the compound `COc1ccc(N2CCN(C3(c4ccccc4)C(=O)c4ccccc4C3=O)CC2)cc1`, the activation was inactive: 6.66%.

In the case of `Cc1ccc(Cl)cc1N(C)C(=O)c1cc2c(Cl)nc3ccccc3c2s1`, the activation is inactive: 4.21%.

Turning to `N#C/C(=C/c1ccccc1Cl)c1nc2ccccc2c(=O)[nH]1`, the activation is inactive: 2.39%.

On to `CCCCCCNC(=O)c1c[nH]c2ccc(S(=O)(=O)N(C)c3ccc(C(C)C)cc3)cc2c1=O`, for which the activation was inactive: -9.31%.

`O=C(C1CCC(Cn2c(=O)c3sccc3n(Cc3cccc(F)c3)c2=O)CC1)N1CCOCC1` (stereo not drawn): the activation is inactive: -13.8%.

As to `CC(=O)Nc1ccc(Nc2nc3c(S(=O)(=O)c4cc(C)ccc4C)nnn3c3ccsc23)cc1`, the activation was inactive: -15.6%.

In the case of `Cc1cc2nn(-c3ccc(F)cc3)nc2cc1NC(=O)c1cccc([N+](=O)[O-])c1C`, the activation is inactive: 15.1%.
